Test results reported in PubChem BioAssay AID588591 (National Center for Advancing Translational Sciences (NCATS), 2011).
Out of some 390,000 compounds screened, about 4,700 (1.2%) were called active. The inconclusive results got no clear call from the source; some entries with a clear call stand among them for comparison. Calls follow the shape of the dose curve; as a rule, active = well fitted inhibition curve with a large enough effect; inconclusive = small, poorly fitted or top-dose-only effect, or another doubt; inactive = no such curve, though single readings can be large or run the other way. A potency beside an inconclusive call is a rough fit, not a confirmed value.

Target: DNA polymerase eta (Homo sapiens) (UniProt Q9Y253)
Test: qHTS for Inhibitors of Polymerase Eta
Details: recombinant Pol eta, fluorescent DNA replication assay; series mostly up to 114 µM
Summary of the method: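 Fluorescent replication assay: 50 nM final substrate added after a 15 min room-temperature compound preincubation with 10 nM enzyme. Signal taken at 0 min and again at 10 min.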
Potency is read from the fitted curve at half-maximal effect; tags tell the direction and shape of the fitted curve.

UniProt Q9Y253, sequence (Q9Y253 whole entry, looked up): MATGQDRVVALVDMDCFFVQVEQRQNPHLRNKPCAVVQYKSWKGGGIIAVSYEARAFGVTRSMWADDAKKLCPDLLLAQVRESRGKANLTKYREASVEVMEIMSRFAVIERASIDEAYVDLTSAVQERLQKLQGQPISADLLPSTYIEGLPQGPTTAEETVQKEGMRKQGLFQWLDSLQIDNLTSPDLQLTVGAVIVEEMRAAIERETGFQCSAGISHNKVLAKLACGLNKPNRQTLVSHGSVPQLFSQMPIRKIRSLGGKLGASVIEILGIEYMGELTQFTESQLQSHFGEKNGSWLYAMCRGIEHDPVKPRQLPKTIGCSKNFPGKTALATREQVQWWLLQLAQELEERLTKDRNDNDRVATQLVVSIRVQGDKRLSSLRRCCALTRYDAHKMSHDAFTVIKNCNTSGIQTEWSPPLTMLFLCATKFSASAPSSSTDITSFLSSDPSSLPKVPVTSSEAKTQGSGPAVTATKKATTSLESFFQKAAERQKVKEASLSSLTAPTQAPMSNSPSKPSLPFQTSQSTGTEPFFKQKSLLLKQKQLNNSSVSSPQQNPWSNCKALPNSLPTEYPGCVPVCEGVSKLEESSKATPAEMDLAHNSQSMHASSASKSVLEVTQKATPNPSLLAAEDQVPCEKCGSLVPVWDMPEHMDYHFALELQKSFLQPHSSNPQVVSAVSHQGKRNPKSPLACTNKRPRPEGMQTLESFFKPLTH

Compound	Potency
CC1=CC(c2ccccc2)n2nc(N3C(=O)CCC3=O)nc2N1 (centres undefined)	inactive
CCOC(=O)C1(CCOc2ccccc2)CCN(Cc2cccc3nonc23)CC1	inactive
Cc1ccc2nc(-c3ccc(SCC(=O)N4CCc5ccccc54)nc3)[nH]c2c1	inconclusive: 20 µM [inhibitor, partial curve, poor fit]
CC1CCN(C(=O)CN2c3ccc(Br)cc3-c3ccccc3S2(=O)=O)CC1	inactive
CNc1nc(N/N=C/c2cc3c(cc2[N+](=O)[O-])OCO3)nc(Nc2ccccc2)n1	inconclusive: 14.1 µM [inhibitor, full curve]
CCOc1ccccc1-c1noc(CSc2nnc(-c3ccncc3)n2-c2ccc(F)cc2)n1	inactive
Cc1ccccc1N1CC(C(=O)Nc2nnc(SCc3cccnc3)s2)CC1=O (centres undefined)	active: 17.8 µM
COc1cc(/C=C2\SC(=O)N(Cc3ccc(F)cc3)C2=O)cc([N+](=O)[O-])c1O	active: 50.1 µM
Cc1cc(/C=C2\SC(=O)N(C)C2=O)c(C)n1-c1cccc(C(=O)O)c1	active: 22.4 µM
O=C(NCCc1cn2ccccc2n1)c1cc(COc2ccc3ncccc3c2)on1	inactive
O=C(Cn1nnc2ccccc21)N/N=C\C=C\c1ccccc1	inconclusive: 17.8 µM [inhibitor, single point]
N#C/C(=C/c1cccn1-c1cccc(C(=O)O)c1)c1ccc(Cl)cc1	active: 50.1 µM
CC(=O)N1CCc2c(sc(NC(=O)C3CC3)c2-c2nc3ccccc3s2)C1	active: 25.1 µM
CC(C)CNC(=O)COC(=O)c1c2c(nc3ccccc13)CCC2	inconclusive: 63.1 µM [inhibitor, partial curve, poor fit]
CC1=C(c2ccc(C)c(C)c2)S(=O)(=O)N=C1N1CCN(c2cccc(C)c2)C(C)C1 (centres undefined)	inactive
Cn1c2ccccc2c(=O)c2cc(C#CC3=CCCCC3)ccc21	active: 44.7 µM
C[C@@H]1CN([C@H](C)CO)C(=O)CCCn2nncc2CO[C@H]1CN(C)C(=O)Nc1cccc(Oc2ccccn2)c1	inconclusive: 35.5 µM [inhibitor, single point]
COc1cc(/C=C2\SC(=O)N(c3ccccc3Cl)C2=O)cc([N+](=O)[O-])c1O	active: 56.2 µM
CCOc1ccc(NC(=O)CC2Nc3cccc4cccc(c34)NC2=O)cc1 (centres undefined)	inactive
CCOC(=O)c1c(S(=O)(=O)Nc2ccc(CN3CCC(C)CC3)cc2)c(C)n(C)c1C	inconclusive: 89.1 µM [inhibitor, partial curve, poor fit]
COCCN(CCOC)S(=O)(=O)c1ccc(C(=O)NCCCN2CCOCC2)cc1	inactive
CSCC[C@H](NC(=O)OC(C)(C)C)C(=O)NCC1CCC(C(=O)O)CC1 (some centres undefined)	inconclusive: 100 µM [inhibitor, partial curve, poor fit]

Compound	Potency
COc1ccccc1/C=C(/C(=O)OCC(=O)N(C)Cc1ccccc1)c1ccccc1	inconclusive: 89.1 µM [inhibitor, partial curve, poor fit]
O=C(OCc1nnc(-c2ccccc2)o1)c1ccc([N+](=O)[O-])s1	active: 56.2 µM
CCOc1cc(/C=C2/SC(=S)NC2=O)ccc1OC(=O)c1ccco1	inconclusive: 56.2 µM [inhibitor, partial curve, poor fit]
CNS(=O)(=O)c1cccc(C(=O)OCC(=O)c2ccc[nH]2)c1	active: 44.7 µM
CCCc1cc(=O)[nH]c(SCC(=O)Nc2sc3c(c2C(N)=O)CCCC3)n1	inconclusive: 22.4 µM [inhibitor, full curve]
COc1cc(OC)cc(C(=O)N[C@H](C(=O)OCn2nnc3ccccc3c2=O)C(C)C)c1	inconclusive: 3.98 µM [inhibitor, partial curve, poor fit]
C#CCSc1nccc(-c2nn(-c3ccc(C)cc3)ccc2=O)n1	inconclusive: 31.6 µM [inhibitor, partial curve, poor fit]
COc1nc(NCCO)nc(Nc2ccc([N+](=O)[O-])cc2)n1	inconclusive: 79.4 µM [inhibitor, partial curve, poor fit]
COc1ccc(/C=N/NC(=O)c2cccnc2)c2ccccc12	inconclusive: 89.1 µM [inhibitor, partial curve, poor fit]
NNC(=O)c1nc(Cl)c(Cl)c(N)c1Cl	inconclusive: 89.1 µM [inhibitor, partial curve, poor fit]
COc1ccc2c(c1)CCCC(Br)C2=O (centres undefined)	inconclusive: 22.4 µM [inhibitor, partial curve]
S=C(NCc1ccc2c(c1)OCO2)Nc1ccc(-c2nc3ccccc3[nH]2)cc1	inconclusive: 35.5 µM [inhibitor, single point]
Cc1ccccc1OCCOc1cccc(/C=N/NC(=O)Cc2nnc(N)s2)c1	inconclusive: 15.8 µM [inhibitor, partial curve, poor fit]
Cc1cccc2cc(C#N)c(SCC(=O)N3CCC(C)CC3)nc12	inconclusive: 20 µM [inhibitor, single point]
CC(C)SC1=NC(C)(C)C=C(/C=C/c2c(Cl)cccc2Cl)N1	inconclusive: 89.1 µM [inhibitor, partial curve, poor fit]
Cc1ncc(C[n+]2ccc(C)c(C)c2)c(N)n1	inconclusive: 89.1 µM [inhibitor, partial curve, poor fit]
CC1=C(C(N)=O)C(c2cccs2)n2nc(-c3cccc(C)c3)nc2N1 (centres undefined)	inactive
COc1ccc2c(c1)c(=O)oc1cc(OCC(=O)NC3CC3)ccc12	inconclusive: 12.6 µM [inhibitor, partial curve]
CC(=O)Oc1ccc2c(=O)c(Oc3ccccc3)coc2c1OC(C)=O	active: 6.31 µM
Brc1ccc2c(c1)C(c1cccnc1)=NNC(c1cccs1)=N2	inconclusive: 79.4 µM [inhibitor, partial curve, poor fit]
O=C(CNC(=O)c1ccccc1Cl)OCc1cc(=O)n2nc(C3CC3)sc2n1	inactive
CC(C)CC(=O)Nc1nnc(S(=O)(=O)N(C)c2ccc(Cl)cc2)s1	inconclusive: 89.1 µM [inhibitor, partial curve, poor fit]
